Test results published in patent US20240190987A1, “Engineered EpCam Binding Antibodies” (TigaTX, priority 2021, published 2024).

B1: Ab1126: LS2A R4M32 as anti-EpCAM T-LITE; parental Ab 1094 (protein)
scFv-Fc: QVQLVQSGAEVKKPGASVKVSCKASGYTFTSYWMHWVRQHPGQGLEWMGMIHPNSGGTNYAQKFQGRVTMTRDTSTSTVYMELSSLRSEDTAVYYCAMGDYVSRDYWGQGTLVTVSSGGGGSGGGGSGGGGSEIVLTQSPGTLSLSPGERATLSCRASSSVSSSYLHWYQQKPGQAPRLLIYSTSSRATGIPDRFSGSGSGTDFTLTISRLEPEDFAVYYCQQYSGAQFTFGQGTKLEIKGGGGS[human IgG1 Fc with changes left out]
light: DIQMTQSPSSLSASVGDRVTITCSASSSVSSGNFHWYQQKPGKAPKLLIYRTSNLASGVPSRFSGSGSGTDYTLTISSLQPEDFATYYCQQWSGYPYTFGQGTKVEIKRTVAAPSVFIFPPSDEQLKSGTASVVCLLNNFYPREAKVQWKVDNALQSGNSQESVTEQDSKDSTYSLSSTLTLSKADYEKHKVYACEVTHQGLSSPVTKSFNRGEC
heavy: EVQLVESGGGLVQPGGSLRLSCAASGFTFSNYWMNWVRQAPGKGLEWVAQIRVKSENFATHYADSVKGRFTISRDDSKSTVYLQMNSLRAEDTAVYYCTLYDGFSWGQGTLVTVSSASTKGPSVFPLAPSSKSTSGGTAALGCLVKDYFPEPVTVSWNSGALTSGVHTFPAVLQSSGLYSLSSVVTVPSSSLGTQTYICNVNHKPSNTKVDKKV[human IgG1 Fc with changes left out]
B2: Ab1059: anti-EpCAM T-LITE antibody, preferred 2+1 format (protein)
light: B1 light
heavy 1: QVQLVQSGAEVKKPGASVKVSCKASGYTFTSYWMHWVRQHPGQGLEWMGIIHPNSGGTSYAQKFQGRVTMTRDTSTSTVYMELSSLRSEDTAVYYCAMGDYVSRDYWGQGTLVTVSSGGGGSGGGGSGGGGSEIVLTQSPGTLSLSPGERATLSCRASSSVSSSYLHWYQQKPGQAPRLLIYSTSSRATGIPDRFSGSGSGTDFTLTISRLEPEDFAVYYCQQYSGYQFTFGQGTKLEIKGGGGS[human IgG1 Fc with changes left out]
heavy 2: EVQLVESGGGLVQPGGSLRLSCAASGFTFSNYWMNWVRQAPGKGLEWVAQIRVKSENFATHYADSVKGRFTISRDDSKSTVYLQMNSLRAEDTAVYYCTLYDGFSWGQGTLVTVSSASTKGPSVFPLAPSSKSTSGGTAALGCLVKDYFPEPVTVSWNSGALTSGVHTFPAVLQSSGLYSLSSVVTVPSSSLGTQTYICNVNHKPSNTKVDKKV[human IgG1 Fc with changes left out]
modifications: REGION 1..215: note = Ab1059 Hole LC; REGION 1..471: note = Ab1059 Knob HC; REGION 1..446: note = Ab1059 Hole HC
notes: anti-EpCAM T-LITE antibody, preferred 2+1 format
B3: Ab1089: anti-EpCAM T-LITE antibody (protein)
light: B1 light
heavy: EVQLVESGGGLVQPGGSLRLSCAASGFTFSNYWMNWVRQAPGKGLEWVAQIRVKSENFATHYVDSVKGRFTISRDDSKSTVYLQMNSLRAEDTAVYYCTLYDAFSWGQGTLVTVSSASTKGPSVFPLAPSSKSTSGGTAALGCLVKDYFPEPVTVSWNSGALTSGVHTFPAVLQSSGLYSLSSVVTVPSSSLGTQTYICNVNHKPSNTKVDKKV[human IgG1 Fc with changes left out]
modifications: knob heavy chain missing; REGION 1..215: note = Ab1089 Hole LC; REGION 1..445: note = Ab1089 Hole HC
notes: anti-EpCAM T-LITE antibody

Legend:
[1] = Differential scanning fluorimetry (DSF) melting temperature; type: physicochemical
In short: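 Purified recombinant protein (5 μM) in PBS pH 7.4 with Sypro Orange 5×, plus 10 μM VTX or 0.05% DMSO vehicle, ramped 25–95 °C at 0.01 °C/s. Fluorescence read at ~465/~580 nm; Tm taken as the maximum of the first-derivative curve.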

[2] = tested on: HCT-116 target cells; experiment: TDCC co-culture assay, HCT-116 target cells; type: cell-based, human; conditions: for TDCC in the absence of indinavir / indinavir dependence: HCT-116, DMSO vehicle vs indinavir
Excerpt: (§1) Leukapheresis packs were obtained from deidentified healthy adult donors (StemCell Technologies, Vancouver, BC). Peripheral blood mononuclear cells (PBMCs) were first isolated using the EasySep Direct Human PBMC Kit (StemCell Technologies). Human T cells were magnetically isolated from the PBMCs using the EasySep Human T cell Isolation Kit (StemCell Technologies). T cells were cryopreserved in DMEM with 10% FBS and 10% DMSO and thawed the day of experiments.
Co-culture assays were used to assess T-cell activation (CD69 upregulation), cytokine production or T-cell-dependent cellular cytotoxicity (TDCC) of target cells. Flat-bottom 96-well plates were seeded with 5,000 target cells in complete growth media (DMEM+10% FBS+1% penicillin/streptomycin) 16-24 hrs before the assay. Antibody drugs were added in 10 μL growth media and incubated for at least 10 min at 37° C. Indinavir or vehicle control was added in 10 μL growth media. Magnetically isolated human T-cells were thawed, washed, and resuspended in complete growth media, then added to target cells (50,000 T cells per well) in 80 μL growth media for a final assay well volume of 100 μL. The final effector:target (E:T) ratio was 10:1. Assay plates were incubated at 37° C. with 5% CO2 for 66-70 hr depending on the experiment. T-cells were transferred to a U-bottom 384-well plate and spun (600 rcf×5 min). Supernatants were stored at −20° C. for later analysis of cytokines. T-cells were resuspended in CF405M viability dye (0.5 μM, Biotium, Fremont, CA) in PBS for 10 min at 37° C. At the end of viability staining, cells were fixed by adding methanol-free paraformaldehyde (Electron Microscopy Sciences, Hatfield, PA) to a final concentration of 1% for 10 min at room temperature. T-cells were spun (600 rcf×5 min) and supernatant was aspirated. T-cells were stained with FITC-conjugated anti-human CD45 (BioLegend, San Diego, CA) at 1 pg/mL final dilution and PE-conjugated anti-human CD69 (BioLegend, San Diego, CA) at 400 ng/mL final dilution for 30 minutes at room temperature in the dark, then immediately run an IntelliCyt® iQue3 flow cytometer (Sartorius AG, Göttingen, Germany). While T cells were being processed, target cells were incubated with CellTiter-Glo 2.0 (Promega, Madison, WI) for 15 min at room temperature with shaking then read for luciferase light emission on a GloMax Explorer plate reader using default settings. Specific Cytotoxicity (%) was calculated from the relative luminescence unit values (RLU) using the formula: [1−(experimental RLU/vehicle-treated RLU))×100]. The frequency of CD69+ T-cells (%) was calculated as the percentage of CD69-positive events within the CF405M-negative population. Dose-response curves and EC50 values were calculated in GraphPad Prism 9 software (GraphPad Software San Diego, CA).

[3] = tested on: human T-cells with HCT-116 target cells; experiment: T-cell activation (CD69 upregulation) in co-culture with HCT-116; type: cell-based; conditions: anti-EpCAM T-LITE, FIG. 25
Excerpt: as §1
Co-culture assays were used to assess T-cell activation (CD69 upregulation), cytokine production or T-cell-dependent cellular cytotoxicity (TDCC) of target cells. […] While T cells were being processed, target cells were incubated with CellTiter-Glo 2.0 (Promega, Madison, WI) for 15 min at room temperature with shaking then read for luciferase light emission on a GloMax Explorer plate reader using default settings. Specific Cytotoxicity (%) was calculated from the relative luminescence unit values (RLU) using the formula: [1−(experimental RLU/vehicle-treated RLU))×100]. The frequency of CD69+ T-cells (%) was calculated as the percentage of CD69-positive events within the CF405M-negative population. Dose-response curves and EC50 values were calculated in GraphPad Prism 9 software (GraphPad Software San Diego, CA).

Molecule | TM (° C.) ([1]; LS2A R4 variants (Table 21)) [°C] | T-cell mediated cellular cytotoxicity in co-culture ([2]; anti-EpCAM T-LITE, FIG. 25) | T-cell activation in co-culture [3] | TDCC in the absence of indinavir / indinavir dependence [2] | TM (° C.) ([1]; thermostability by DSF, Table 27) [°C]
B1 | 59.1 | comparable | comparable |  | 
B2 |  |  |  | significant amount of indinavir-independent killing | 
B3 |  |  |  | significant amount of indinavir-independent killing | 71
